Test results published in publication PMC4431712.
These are yes or no findings as the source states them, for the method shown. In cells and extracts the contact can be indirect. Some entries that bind do so weakly or less than the wild type. For part of these data: Where a sequence is shown, tags or fusion partners need not be part of it. One block for each molecule: values may come before it.

By UniProt entry, the sequences of proteins in these tests, tags left out.
UniProt Q16665: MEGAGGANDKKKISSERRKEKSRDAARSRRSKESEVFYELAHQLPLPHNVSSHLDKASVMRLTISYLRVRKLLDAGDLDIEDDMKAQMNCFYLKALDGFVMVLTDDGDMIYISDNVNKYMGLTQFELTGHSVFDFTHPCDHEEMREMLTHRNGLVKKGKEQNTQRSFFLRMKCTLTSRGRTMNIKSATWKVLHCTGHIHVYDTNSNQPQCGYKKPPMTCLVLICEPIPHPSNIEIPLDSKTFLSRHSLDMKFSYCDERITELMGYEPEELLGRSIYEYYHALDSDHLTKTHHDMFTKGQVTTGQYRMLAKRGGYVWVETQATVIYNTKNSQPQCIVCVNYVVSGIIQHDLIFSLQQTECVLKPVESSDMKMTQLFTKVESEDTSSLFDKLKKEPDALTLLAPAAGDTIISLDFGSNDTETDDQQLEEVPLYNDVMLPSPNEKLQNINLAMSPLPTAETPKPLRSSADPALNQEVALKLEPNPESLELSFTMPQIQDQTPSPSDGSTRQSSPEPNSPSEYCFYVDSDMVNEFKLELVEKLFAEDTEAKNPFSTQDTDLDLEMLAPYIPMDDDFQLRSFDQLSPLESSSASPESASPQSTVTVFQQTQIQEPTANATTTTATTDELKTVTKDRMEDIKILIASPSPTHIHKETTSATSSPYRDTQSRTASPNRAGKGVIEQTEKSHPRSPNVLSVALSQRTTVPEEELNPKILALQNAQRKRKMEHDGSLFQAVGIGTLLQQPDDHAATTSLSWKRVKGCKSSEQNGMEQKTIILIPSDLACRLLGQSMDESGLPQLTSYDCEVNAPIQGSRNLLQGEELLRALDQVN
UniProt Q9GZT9: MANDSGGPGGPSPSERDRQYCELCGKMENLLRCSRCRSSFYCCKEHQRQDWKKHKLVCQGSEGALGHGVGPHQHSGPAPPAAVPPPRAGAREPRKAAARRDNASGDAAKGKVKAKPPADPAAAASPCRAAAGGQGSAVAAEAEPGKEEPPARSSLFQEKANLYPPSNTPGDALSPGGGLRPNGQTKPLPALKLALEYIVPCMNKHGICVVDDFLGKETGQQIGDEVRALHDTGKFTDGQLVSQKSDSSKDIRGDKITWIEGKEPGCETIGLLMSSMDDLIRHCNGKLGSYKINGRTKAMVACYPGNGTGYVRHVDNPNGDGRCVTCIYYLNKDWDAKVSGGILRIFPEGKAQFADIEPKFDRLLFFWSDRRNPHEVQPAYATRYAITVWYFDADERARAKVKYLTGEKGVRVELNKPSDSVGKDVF

Key:
[1] = target: T1, GST-MTG16 (UniProt O75081); assay: pull-down; GST or GST fusion protein on glutathione-Sepharose beads, incubated overnight at 4°C with whole cell lysate of transfected COS-7 cells; NTN buffer (100 mM NaCl, 20 mM Tris, 0.1% NP-40) with 1.0 mM EDTA; Western blotting; only the target purified
T1 sequence: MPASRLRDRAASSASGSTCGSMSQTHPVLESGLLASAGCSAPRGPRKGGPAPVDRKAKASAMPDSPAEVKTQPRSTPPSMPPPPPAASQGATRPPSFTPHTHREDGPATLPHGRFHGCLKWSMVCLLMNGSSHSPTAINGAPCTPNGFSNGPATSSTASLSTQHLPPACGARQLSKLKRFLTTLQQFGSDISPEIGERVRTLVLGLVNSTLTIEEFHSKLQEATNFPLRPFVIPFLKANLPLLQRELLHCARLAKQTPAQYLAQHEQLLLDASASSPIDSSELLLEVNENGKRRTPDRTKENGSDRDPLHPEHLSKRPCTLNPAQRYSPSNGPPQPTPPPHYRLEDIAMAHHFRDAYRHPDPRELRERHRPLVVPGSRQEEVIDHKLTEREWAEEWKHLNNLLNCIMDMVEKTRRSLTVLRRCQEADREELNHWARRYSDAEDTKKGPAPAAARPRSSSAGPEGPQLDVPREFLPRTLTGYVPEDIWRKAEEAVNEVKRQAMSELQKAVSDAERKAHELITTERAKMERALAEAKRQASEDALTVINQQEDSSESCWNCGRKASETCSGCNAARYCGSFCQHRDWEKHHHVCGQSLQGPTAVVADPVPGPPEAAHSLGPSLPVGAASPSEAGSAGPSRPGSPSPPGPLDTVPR

[2] = target: T2, MTG16 (full length) (UniProt O75081); assay: co-IP; COS-7 cells transfected with MTG16 and HIF1α, harvested after 24 h; IP with α-MTG or α-HIF1α and Protein A Sepharose, lysis buffer with 250 mM NaCl, 0.1% NP-40; Western blotting
T2 sequence: T1 sequence

[3] = target: T3, MTG16 (doxycycline-induced in Raji/MTG16 Tet-On 3G cells) (UniProt O75081); assay: co-IP; Raji-MTG16 cells induced 12 h with 20 ng/ml doxycycline under 4% O2; IP with α-MTG or α-HIF1α and Protein A Sepharose; Western blotting
T3 sequence: T1 sequence

[4] = target: GST-HIF1α (UniProt Q16665); assay: pull-down; GST or GST fusion protein on glutathione-Sepharose beads, incubated overnight at 4°C with whole cell lysate of transfected COS-7 cells; NTN buffer (100 mM NaCl, 20 mM Tris, 0.1% NP-40) with 1.0 mM EDTA; Western blotting; only the target purified
[5] = target: HIF1α (full length) (UniProt Q16665); assay: co-IP; COS-7 cells transfected with MTG16 and HIF1α, harvested after 24 h; IP with α-MTG or α-HIF1α and Protein A Sepharose, lysis buffer with 250 mM NaCl, 0.1% NP-40; Western blotting
[6] = target: HA-HIF1α (UniProt Q16665); assay: co-IP; Raji-MTG16 cells co-transfected with HA-HIF1α and FLAG-ubiquitin, 4% O2, with 20 ng/ml doxycycline; IP with anti-HA antibody; Western blotting
[7] = target: HIF1α (in Raji-MTG16 cells at 4% O2) (human (endogenous in Raji)) (UniProt Q16665); assay: co-IP; Raji-MTG16 cells induced 12 h with 20 ng/ml doxycycline under 4% O2; IP with α-MTG or α-HIF1α and Protein A Sepharose; Western blotting

Molecule: HIF1α (full length) (from UniProt Q16665 1-826)
binding [1]: binds
binding [2]: binds

Molecule: HIF1α (in Raji-MTG16 cells at 4% O2) (from UniProt Q16665 1-826)
binding [3]: binds

B1: MTG16 (full length) (protein, UniProt O75081 1-653)
chain: T1 sequence
binding [4]: binds
binding [5]: binds

B2: MTG16 (doxycycline-induced in Raji/MTG16 Tet-On 3G cells) (protein, UniProt O75081 1-653)
chain: T1 sequence
binding [6]: binds
binding [7]: binds

B3: MTG16 residues 1–290 (domain or fragment, UniProt O75081 1-290)
chain: MPASRLRDRAASSASGSTCGSMSQTHPVLESGLLASAGCSAPRGPRKGGPAPVDRKAKASAMPDSPAEVKTQPRSTPPSMPPPPPAASQGATRPPSFTPHTHREDGPATLPHGRFHGCLKWSMVCLLMNGSSHSPTAINGAPCTPNGFSNGPATSSTASLSTQHLPPACGARQLSKLKRFLTTLQQFGSDISPEIGERVRTLVLGLVNSTLTIEEFHSKLQEATNFPLRPFVIPFLKANLPLLQRELLHCARLAKQTPAQYLAQHEQLLLDASASSPIDSSELLLEVNEN
binding [4]: binds

B4: MTG16 residues 1–354 (domain or fragment, UniProt O75081 1-354)
chain: MPASRLRDRAASSASGSTCGSMSQTHPVLESGLLASAGCSAPRGPRKGGPAPVDRKAKASAMPDSPAEVKTQPRSTPPSMPPPPPAASQGATRPPSFTPHTHREDGPATLPHGRFHGCLKWSMVCLLMNGSSHSPTAINGAPCTPNGFSNGPATSSTASLSTQHLPPACGARQLSKLKRFLTTLQQFGSDISPEIGERVRTLVLGLVNSTLTIEEFHSKLQEATNFPLRPFVIPFLKANLPLLQRELLHCARLAKQTPAQYLAQHEQLLLDASASSPIDSSELLLEVNENGKRRTPDRTKENGSDRDPLHPEHLSKRPCTLNPAQRYSPSNGPPQPTPPPHYRLEDIAMAHHFR
binding [4]: binds

The next lines start with the values.

binding [3]: binds
Molecule: prolyl hydroxylase domain-containing protein 2 (PHD2) (from UniProt Q9GZT9 1-426) (enzyme)

binding [4]: binds
B5: MTG16 residues 1–405 (domain or fragment, UniProt O75081 1-405)
chain: MPASRLRDRAASSASGSTCGSMSQTHPVLESGLLASAGCSAPRGPRKGGPAPVDRKAKASAMPDSPAEVKTQPRSTPPSMPPPPPAASQGATRPPSFTPHTHREDGPATLPHGRFHGCLKWSMVCLLMNGSSHSPTAINGAPCTPNGFSNGPATSSTASLSTQHLPPACGARQLSKLKRFLTTLQQFGSDISPEIGERVRTLVLGLVNSTLTIEEFHSKLQEATNFPLRPFVIPFLKANLPLLQRELLHCARLAKQTPAQYLAQHEQLLLDASASSPIDSSELLLEVNENGKRRTPDRTKENGSDRDPLHPEHLSKRPCTLNPAQRYSPSNGPPQPTPPPHYRLEDIAMAHHFRDAYRHPDPRELRERHRPLVVPGSRQEEVIDHKLTEREWAEEWKHLNNLLNC

binding [4]: no binding
B6: MTG16 residues 290 to 653 (domain or fragment, UniProt O75081 290-653)
chain: NGKRRTPDRTKENGSDRDPLHPEHLSKRPCTLNPAQRYSPSNGPPQPTPPPHYRLEDIAMAHHFRDAYRHPDPRELRERHRPLVVPGSRQEEVIDHKLTEREWAEEWKHLNNLLNCIMDMVEKTRRSLTVLRRCQEADREELNHWARRYSDAEDTKKGPAPAAARPRSSSAGPEGPQLDVPREFLPRTLTGYVPEDIWRKAEEAVNEVKRQAMSELQKAVSDAERKAHELITTERAKMERALAEAKRQASEDALTVINQQEDSSESCWNCGRKASETCSGCNAARYCGSFCQHRDWEKHHHVCGQSLQGPTAVVADPVPGPPEAAHSLGPSLPVGAASPSEAGSAGPSRPGSPSPPGPLDTVPR
